Reference: PubChem BioAssay AID504339 (National Center for Advancing Translational Sciences (NCATS), 2011)
In all, about 390,000 compounds went through this assay and about 17,000 (4.4%) were called active. Inconclusive results, whose numbers are uncertain, are shown with a selection of clear calls. The call rests on the fitted dose curve; in most records, active means well fitted inhibition curve with a large enough effect; inconclusive means small, poorly fitted or top-dose-only effect; inactive means no such curve, though single readings can be large or run the other way. Potencies of inconclusive entries are doubtful fits and often do not repeat.
Further: nearly all actives have a fitted effect of over 50% in size.
On the % scale 0 is the no-effect control and ±100 the full control effect; potency means the concentration at half of the fitted maximal effect; tags describe the fitted curve by direction and shape.

Each compound was assayed against Lysine-specific demethylase 4A (Homo sapiens) (UniProt O75164) (assay: qHTS Assay for Inhibitors of JMJD2A-Tudor Domain). Conditions: AlphaScreen JMJD2A-Tudor / H3K4me3 peptide binding; activity change, negative = inhibition: at 114 µM (top of the series).
UniProt O75164, sequence (O75164 whole entry, looked up, the tested form may be a part): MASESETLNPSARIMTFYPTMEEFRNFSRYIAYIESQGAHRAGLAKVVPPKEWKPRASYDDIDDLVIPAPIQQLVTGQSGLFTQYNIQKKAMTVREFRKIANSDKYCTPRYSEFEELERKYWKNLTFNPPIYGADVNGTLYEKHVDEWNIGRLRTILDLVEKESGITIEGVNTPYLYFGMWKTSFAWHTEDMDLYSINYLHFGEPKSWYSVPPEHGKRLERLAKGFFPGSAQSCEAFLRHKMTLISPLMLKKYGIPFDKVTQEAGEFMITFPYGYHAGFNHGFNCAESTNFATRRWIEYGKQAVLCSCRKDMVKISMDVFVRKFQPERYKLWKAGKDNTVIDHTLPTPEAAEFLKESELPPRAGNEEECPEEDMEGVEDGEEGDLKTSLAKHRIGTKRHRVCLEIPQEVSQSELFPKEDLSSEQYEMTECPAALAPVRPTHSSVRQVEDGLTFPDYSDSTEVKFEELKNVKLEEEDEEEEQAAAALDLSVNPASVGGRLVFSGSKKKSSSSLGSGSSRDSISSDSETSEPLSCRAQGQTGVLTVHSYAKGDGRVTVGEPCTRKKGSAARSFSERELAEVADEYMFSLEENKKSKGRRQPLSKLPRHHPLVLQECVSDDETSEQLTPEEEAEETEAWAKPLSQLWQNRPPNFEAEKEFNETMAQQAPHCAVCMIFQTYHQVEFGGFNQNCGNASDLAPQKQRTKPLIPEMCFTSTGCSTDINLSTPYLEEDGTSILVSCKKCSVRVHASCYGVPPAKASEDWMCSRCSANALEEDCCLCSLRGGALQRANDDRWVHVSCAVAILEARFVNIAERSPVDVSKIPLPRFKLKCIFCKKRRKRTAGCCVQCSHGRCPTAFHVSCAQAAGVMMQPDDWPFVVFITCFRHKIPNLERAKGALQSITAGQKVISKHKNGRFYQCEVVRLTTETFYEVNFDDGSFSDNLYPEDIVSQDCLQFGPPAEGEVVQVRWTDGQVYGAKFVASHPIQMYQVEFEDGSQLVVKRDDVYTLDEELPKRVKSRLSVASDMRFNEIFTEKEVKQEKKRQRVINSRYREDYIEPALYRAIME
With `CC(Oc1ccccc1)C(=O)NC1=NCCS1` (configuration not stated) the Potency was active: 31.6 µM.
For `Cc1ccc(NC(=O)CN2C(=O)S/C(=C\c3cc(C)n(-c4ccc(C(=O)O)cc4)c3C)C2=O)cc1`, the Potency was inconclusive: 56.2 µM [inhibitor, partial curve].
For `CCCCCOCC1CC(C/C(C)=N/Nc2nc(-c3ccccc3)cs2)C(=O)O1` (configuration not stated), the Potency was inconclusive: 79.4 µM [inhibitor, partial curve].
For `Cc1nn2c(-c3cccc(NC(=O)CN4CCOCC4)c3)nnc2c2ccccc12`, the Potency was inconclusive: 70.8 µM [inhibitor, single point].
`Cc1nnc(NC(=O)c2nc(S(=O)(=O)Cc3ccccc3C)ncc2Cl)s1` was tested, and the Potency was inconclusive: 39.8 µM [inhibitor, partial curve].
`C#CCOCCOCCOCCNc1nc(N2CCN(C(=O)[C@H]([C@@H](C)CC)n3cc(CCCN=C(N)N)nn3)CC2)nc(N2CCN(C(=O)[C@H](Cc3ccc(O)cc3)n3cc(CCO)nn3)CC2)n1` was tested, and the Potency was inconclusive: 89.1 µM [inhibitor, partial curve].
For `CC(=O)Nc1nnc(SCc2cc(=O)c3cc(C)ccc3[nH]2)s1`, the Potency was inconclusive: 79.4 µM [inhibitor, partial curve].
With `CNC[C@H]1Oc2ccc(NC(=O)C3CCCCC3)cc2CC(=O)N([C@H](C)CO)C[C@@H]1C` the “activity change, negative = inhibition” value was inactive: -13.3%.
`O=C(N=C1c2ccccc2CN1c1ccccc1)c1cccc([N+](=O)[O-])c1` was tested, and the Potency was inconclusive: 22.4 µM [inhibitor, single point].
In the case of `COC(=O)/C=C1/N/C(=N\c2nc(C)cc(C)n2)N(c2cccc(C)c2)C1=O`, the Potency is reported as active: 22.4 µM.
With `O=C(CCn1c(=O)oc2ccccc21)Nc1ccccc1` the “activity change, negative = inhibition” value was inactive: -15.8%.
For `COc1cc(CNCc2ccccn2)ccc1OCc1c(Cl)cccc1Cl`, the Potency was inconclusive: 50.1 µM [inhibitor, partial curve].
In the case of `CC(C)C/C(O)=C/c1nc2cc(Cl)ccc2oc1=O`, the Potency is reported as inconclusive: 39.8 µM [inhibitor, partial curve, poor fit].
For `O=C(COC(=O)c1ccc(Cl)c(S(=O)(=O)N2CCCC2)c1)NC1CCCCC1`, the Potency was inconclusive: 50.1 µM [inhibitor, partial curve].
In the case of `O=c1[nH]n2c(C(F)(F)F)cc(C3CC3)nc2c1N=Nc1ccccc1`, the Potency is reported as inconclusive: 56.2 µM [inhibitor, partial curve].
For `CCCOc1ccc(C(=O)NC(=S)NNC(=O)c2c(-c3ccccc3)noc2C)cc1`, the Potency was inconclusive: 50.1 µM [inhibitor, partial curve, poor fit].
With `CCCCCc1cc(=O)oc2c(C(CCN3CCCC(C)C3)c3ccc(OC)cc3)c(OC)cc(OC)c12` (configuration not stated) the Potency was inconclusive: 89.1 µM [inhibitor, partial curve].
